Assay results as given in PubChem BioAssay AID1645887 (National Center for Advancing Translational Sciences (NCATS), 2021).
Several values for one entry are separate records, joined by “and”; a condition that tells them apart may be missing. Equal entries are not always repeated. Screen size: about 16,000 compounds; about 40 (0.2%) were called active. Inconclusive results (about 1%) are left out. Calls follow the shape of the dose curve; as a rule, active = well fitted activation curve with a large enough effect; inconclusive = small, poorly fitted or top-dose-only effect, or another doubt; inactive = no such curve, though single readings can be large or run the other way. The list shows a part of the results. Non-standard residues stand in square brackets, D forms with d. Residues, ends and D or L forms follow the SMILES beside them. Orn = NCCC[C@H](N)C(=O)O

Molecular target: Rap guanine nucleotide exchange factor 4 (Homo sapiens) (UniProt Q8WZA2)
Sequence of UniProt Q8WZA2 (Q8WZA2 whole entry, looked up): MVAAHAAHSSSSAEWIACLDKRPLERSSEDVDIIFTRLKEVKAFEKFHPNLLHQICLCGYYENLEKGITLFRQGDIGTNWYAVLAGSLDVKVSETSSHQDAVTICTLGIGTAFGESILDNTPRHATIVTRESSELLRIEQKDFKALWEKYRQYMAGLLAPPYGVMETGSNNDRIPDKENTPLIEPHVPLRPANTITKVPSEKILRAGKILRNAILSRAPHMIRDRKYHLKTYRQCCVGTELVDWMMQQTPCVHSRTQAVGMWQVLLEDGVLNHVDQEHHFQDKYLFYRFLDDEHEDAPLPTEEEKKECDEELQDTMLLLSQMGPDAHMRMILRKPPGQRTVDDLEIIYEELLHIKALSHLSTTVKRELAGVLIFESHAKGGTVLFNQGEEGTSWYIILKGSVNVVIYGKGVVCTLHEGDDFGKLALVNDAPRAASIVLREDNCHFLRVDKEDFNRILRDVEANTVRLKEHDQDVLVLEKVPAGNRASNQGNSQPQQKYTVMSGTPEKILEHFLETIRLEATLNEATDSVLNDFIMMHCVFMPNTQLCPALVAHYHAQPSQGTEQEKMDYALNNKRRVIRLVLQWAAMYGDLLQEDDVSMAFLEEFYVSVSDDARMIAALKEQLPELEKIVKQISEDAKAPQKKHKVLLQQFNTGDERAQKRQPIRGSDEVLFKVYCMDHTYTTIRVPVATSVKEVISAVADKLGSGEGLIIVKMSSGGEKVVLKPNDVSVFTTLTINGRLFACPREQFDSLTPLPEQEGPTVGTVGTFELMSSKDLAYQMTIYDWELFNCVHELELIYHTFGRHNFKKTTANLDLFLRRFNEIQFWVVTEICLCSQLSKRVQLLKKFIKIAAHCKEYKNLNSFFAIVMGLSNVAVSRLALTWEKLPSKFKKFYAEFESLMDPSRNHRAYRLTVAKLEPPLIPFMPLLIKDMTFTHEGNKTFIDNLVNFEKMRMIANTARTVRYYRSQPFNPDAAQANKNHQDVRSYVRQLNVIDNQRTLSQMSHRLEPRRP
Experiment: Validation qHTS for agonist of cAMP-regulated guanine nucleotide exchange factor 4 (EPAC2);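 also: exchange makes BODIPY-GDP fluorescence drop when released from Rap1B; series mostly up to about 150 µM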
Details: EPAC2 Rap1B BODIPY-GDP exchange, fluorescence; activation: active compounds read high
Method in brief: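 Fluorescent exchange assay: 100 nM EPAC2 with 250 nM RAP1B-BODIPY-GDP and 50 uM GDP; compound added, 5 min at room temperature, then read (ex 480/em 540 nm) every 5 min for 30 min. Normalized to 6.5 mM cAMP agonist control.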
% is scaled to controls: 0 for no effect and ±100 for the full control effect.

activation, inactive:
COc1cc(CNC(=O)CCCC/C=C\C(C)C)ccc1O -23.3% and -40.2%
CCN1CCCC1CNC(=O)c1cnn(-c2nccc(-c3ccco3)n2)c1C1CC1 (stereo unspecified) -1.8%
CN(Cc1ccco1)c1ncncc1-c1cccnc1 -1.15%
CCOC(=O)C(CCc1ccccc1)NC(C)C(=O)N1CCCC1C(=O)O (stereo unspecified) 0.999%
CC(C)C[C@@H]1NC(=O)[C@H](CCCN)NC(=O)[C@H](C(C)C)NC(=O)[C@@H]2CCCN2C(=O)[C@@H](Cc2ccccc2)NC(=O)[C@H](CC(C)C)NC(=O)[C@H](CCCN)NC(=O)[C@H](C(C)C)NC(=O)[C@@H]2CCCN2C(=O)[C@@H](Cc2ccccc2)NC1=O (cyclo(V[Orn]L[dF]PV[Orn]L[dF]P)) -44.7%
COc1ccc(OC)c(-c2ccnc(-n3ncc(C(=O)N4CCN(CCO)CC4)c3C3CC3)n2)c1 -6.43%
COc1ccccc1CCn1c(=O)c(-c2ccccc2)nc2cncnc21 -0.54%
COC(=O)CNC(=O)c1cnn(-c2ncc3c(n2)-c2ccccc2CCC3)c1C1CC1 -9.57%
O=C(c1ccncc1)N1CCC[C@@]2(CCN(Cc3cc(C(F)(F)F)cc(C(F)(F)F)c3)C2)C1 -33.8%
CCc1cc(C(N)=S)ccn1 -4.82% and -4.81%
Cc1noc(C)c1-c1nccc(N2CCOCC2)n1 -5.32%
Cc1cc(=S)[nH]c2ccccc12 -17.1%
CN(C)C(=O)c1ccc(-c2cncnc2NC2CCNCC2)cc1 -5.98%
O=C(CCc1c[nH]c2ccccc12)N1CCC(n2c(C3CCCO3)nc3cc(C(F)(F)F)ccc32)CC1 (stereo unspecified) -21.2%
O=C(c1csnn1)N1CCC2(CC1)CCN(c1cccc(-c3ccccc3)c1)CC2 -1.39%
Cc1ccc(S(=O)(=O)NC(=O)NC2CCCCC2)cc1 5.86%
COc1cc2nc(N3CCN(C(=O)OCc4ccccc4)C(C(=O)NC(C)(C)C)C3)nc(N)c2cc1OC (stereo unspecified) -38%
Cc1noc(C)c1-c1cc(N2CCN(C)CC2)ncn1 4.38%
CC(=O)Nc1c(I)c(NC(C)=O)c(I)c(C(=O)O)c1I -9.56%
CCC[C@H]1COCCS(=O)(=O)N1Cc1cccc(F)c1 -21.4%
O=C(Oc1ccccc1)c1cccc(C(=O)Oc2ccccc2)c1 -28.3%
Cc1ccc2c(/C=C/c3c[nH]c4ccccc34)ccnc2c1C 1.44%
CC(=O)Nc1ccc(S(=O)(=O)Nc2ccc([N+](=O)[O-])cc2)cc1 -6.33%
CN(C)C(=O)c1ccc(-c2ccc3ncnc(NCc4ccccc4)c3c2)cc1 3.42%
CN(Cc1ccco1)c1ncnc2ccc(-c3cccc(NS(C)(=O)=O)c3)cc12 6.4%
Cn1cc(C2=C(c3ccc(Cl)cc3Cl)C(=O)NC2=O)c2ccccc21 -7.98% and -22.5%
CC1OC(OCC2OC(Oc3c(-c4ccc(O)c(O)c4)oc4cc(O)cc(O)c4c3=O)C(O)C(O)C2O)[C@@H](O)C(O)C1O (stereo partly specified) -11.2%
CN(C)CC(C)(C)CNC(=O)c1cnn(-c2nccc(-c3ccc4c(c3)OCO4)n2)c1-c1ccco1 -3.42%
O=c1c(CCc2ccccc2)nc2cnc(Nc3ccccc3)nc2n1C[C@H]1CCCO1 5.69%
Cn1c(SCC2CCCO2)nnc1C1CCN(Cc2ccccc2O)CC1 (stereo unspecified) -12.7%
COc1ccc(-c2c(-c3cc(OC)c(OC)c(OC)c3)noc2C)cn1 -27.6%
CC(=O)N1CCC2(CCN(Cc3cc(C(F)(F)F)cc(C(F)(F)F)c3)CC2)CC1 -13.4%
CC(C)OC(=O)Nc1ccc2nc(-c3cscn3)[nH]c2c1 -33.3%
COc1cc(OC)c(/C=C2/C(=O)Nc3ccccc32)c(OC)c1 -24.1%
COc1cccc2c(=O)c3ccoc3n(C)c12 -8.1%
CN1CCCC1CCO[C@@](C)(c1ccccc1)c1ccc(Cl)cc1 (stereo partly specified) 2.9%
CC[C@H](C)[C@H]1O[C@]2(CC[C@@H]1C)C[C@@H]1C[C@@H](C/C=C(\C)[C@@H](O[C@H]3C[C@H](OC)[C@@H](O[C@H]4C[C@H](OC)[C@@H](O)[C@H](C)O4)[C@H](C)O3)[C@@H](C)/C=C/C=C3\CO[C@@H]4[C@H](O)C(C)=C[C@@H](C(=O)O1)[C@]34O)O2 -35.3%
CC(=O)OC1CCC2(C)C(=CCC3C2CCC2(C)C3C[C@@H]3O[C@]32C(C)=O)C1 (stereo partly specified) -8.42%
Cc1cccc(Nc2cc(Cl)nc(SCC(=O)O)n2)c1C -7.24% [middle of 4 runs]
CC(C)(C)NC(=O)[C@H]1CN(Cc2cccnc2)CCN1C[C@@H](O)C[C@@H](Cc1ccccc1)C(=O)N[C@H]1c2ccccc2C[C@H]1O -31.4%
C=C1CCC(O)C/C1=C\C=C1/CCCC2(C)C1CCC2C(C)/C=C/C(C)C(C)C (stereo unspecified) -60%
CC(C)CN1CCCC2(CCN(C(=O)c3cc(C(F)(F)F)cc(C(F)(F)F)c3)CC2)C1 -33.7%
COc1ccccc1-c1cc(-n2ccnc2)ncn1 -0.886%
O=C1[C@H](Cc2ccccc2)NC/C=C\C[C@@H](c2ccc(Cl)cc2)N1Cc1ccccc1 -43%
COc1ccc(CC(N)C(=O)NC2C(O)[C@H](n3cnc4c(N(C)C)ncnc43)O[C@@H]2CO)cc1 (stereo partly specified) 5.11%
O=C(N/N=C/c1ccc([N+](=O)[O-])o1)c1ccc(O)cc1 -7.97%
CN1CCN(C(c2ccccc2)c2ccc(Cl)cc2)CC1 (stereo unspecified) -1.75%
CCc1oc2ccccc2c1C(=O)c1cc(I)c(O)c(I)c1 -8.37%
COc1ccc(-c2nc3cnc(OC)nc3n(-c3ccccc3)c2=O)cc1 -0.906%
CC(C)=CCC/C(C)=C/CC/C(C)=C/CCC(=O)OC/C=C(\C)CCC=C(C)C -17%
Cc1ccc(C(C)C)cc2c(C)ccc1-2 -0.138% and -5.79%
COCCn1c(=O)c(-c2cc(F)cc(F)c2)nc2cnc(Oc3cccc(Cl)c3)nc21 -4.03%
NC(=O)c1ncn([C@@H]2O[C@H](CO)[C@@H](O)[C@H]2O)c1O 3.91% and -8.43%
CN(C)C(=O)c1ccc(-c2nccc(N(C)Cc3ccco3)n2)cc1 -10.8%
CC(C)C(NC(=O)c1ccoc1)c1nnc2n1CCN(C(=O)/C=C/c1ccc(F)cc1)CC2 (stereo unspecified) -19.1%
CCc1nc2cc(C(=O)N3CCCN(C=O)CC3)cc(NC(=O)c3ccccc3OC)c2n1C -4.58%
C[C@H](CCC(=O)O)[C@H]1CC[C@@H]2[C@H]3CC[C@H]4C[C@H](O)CC[C@]4(C)[C@@H]3CC[C@@]21C -9.27%
Cc1noc(C)c1C(=O)N1CCC2(CC1)CN(C(=O)Nc1cccc(F)c1)C2 -11.2%
COc1cccc(Nc2ncc3nc(-c4ccccc4)c(=O)n(Cc4cccs4)c3n2)c1 -10.4%
CC(C)(C)NCC(O)CSc1nc(-c2ccc(C(N)=O)s2)cs1 (stereo unspecified) -4.03%
CC[C@H](C)C(=O)O[C@H]1CCC=C2C=C[C@H](C)[C@H](CC[C@@H]3C[C@H](O)CC(=O)O3)[C@H]21 -37.3%
Cn1cnc2c(ncn2[C@@H]2O[C@H](CO)[C@@H](O)[C@H]2O)c1=N -4.72%
Cc1cccc(CNc2ccnc(-c3cccnc3)n2)c1 -12.5%
CCC(=O)N[C@@H]1CCc2cccc(OC)c2C1 -20.2%
C/C(=C\CO)CCC(C)CCCC(C)CCCC(C)C (stereo unspecified) -44%
O=C(c1ccco1)N1CCC[C@@]2(CCN(c3cccc(-c4ccccc4)c3)C2)C1 4.69%
OCC1=CC[N+]2(Cc3ccccc3)CCC(O)[C@@H]12 (stereo partly specified) -16.7%
COc1cccc(Nc2ncc3nc(-c4ccccc4)c(=O)n(C)c3n2)c1 -7.86%
O=C(c1ccco1)N1CCC2(CC1)CCN(c1ccccn1)CC2 -16.1%
COC(=O)[C@@H]1CCCN1S(=O)(=O)Cc1ccccc1 -14.2%
CCCCCCCC(=O)CC[C@@H]1[C@@H](C/C=C\CCCC(=O)OC(C)C)[C@@H](O)C[C@H]1O -51.3%
CCCCO -25.4%
CCN1CCCC1CNC(=O)c1cnn(-c2nccc(-c3ccccc3F)n2)c1C (stereo unspecified) -3.68%
C=C1C2CC[C@@]3(C)C(c4ccoc4)OC(=O)C[C@@]13OC1CC(=O)C(C)(C)C(C(O)C(=O)OC)[C@]12C (stereo partly specified) -9.5%
FC(F)(F)c1cc(CO[C@H]2CCCN[C@H]2c2ccccc2)cc(C(F)(F)F)c1 -19.3%
O=c1c(-c2ccc(F)c(F)c2)nc2cncnc2n1Cc1ccccc1Cl 18%
Cc1ccc(S(=O)(=O)NCl)cc1 2.21%
Nc1ccc(C=O)cc1 -18.1%
COc1ccc(Oc2ncc3nc(-c4cn(C)c5ccccc45)c(=O)n(C)c3n2)cc1 -2.47%
O=C(N/N=C/c1ccccc1O)c1ccncc1 -26.3%
C[C@@H]1CN(c2c(F)c(N)c3c(=O)c(C(=O)O)cn(C4CC4)c3c2F)C[C@H](C)N1 -1.02%
